# Source: the supplement of paper PMC8728848
# This is one part of the list.
# B1: FBG5 (Homo sapiens), Q8NI29 (protein)
# chain: MGASVSRGRAARVPAPEPEPEEALDLSQLPPELLLVVLSHVPPRTLLGRCRQVCRGWRALVDGQALWLLILARDHGATGRALLHLARSCQSPARNARPCPLGRFCARRPIGRNLIRNPCGQEGLRKWMVQHGGDGWVVEENRTTVPGAPSQTCFVTSFSWCCKKQVLDLEEEGLWPELLDSGRIEICVSDWWGARHDSGCMYRLLVQLLDANQTVLDKFSAVPDPIPQWNNNACLHVTHVFSNIKMGVRFVSFEHRGQDTQFWAGHYGARVTNSSVIVRVRLS
# Assays:
# Assay in all cases: glycan array binding signal (z-score within array); higher = stronger binding
# Conditions in all cases: glycan notation: IUPAC condensed, linker removed
# Kdn(a2-3)Gal(b1-4)GlcNAc = target: Kdn(a2-3)Gal(b1-4)GlcNAc
# Method in brief: (§1)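 Negative Z-scores can be read as non-binding. The Z-score is calculated within each array and then averaged across arrays of one protein sequence at different concentrations or buffers and across linkers. Arrays, 3228 in all, were curated from the Consortium for Functional Glycomics database and kept only where the protein sequence was available.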
# [1] = target: Man(a1-2)Man(a1-2)Man(a1-3)Man
# Method in brief: as §1
# [2] = target: Man(a1-2)Man(a1-2)Man(a1-3)[Man(a1-2)Man(a1-3)[Man(a1-2)Man(a1-6)]Man(a1-6)]Man(b1-4)GlcNAc(b1-4)GlcNAc
# Method in brief: as §1
# [3] = target: Man(a1-2)Man(a1-2)Man(a1-3)[Man(a1-2)Man(a1-6)[Man(a1-3)]Man(a1-6)]Man(b1-4)GlcNAc(b1-4)GlcNAc
# Method in brief: as §1
# [4] = target: Man(a1-2)Man(a1-2)Man(a1-6)[Man(a1-3)]Man
# Method in brief: as §1
# Man(a1-2)Man(a1-3)Man = target: Man(a1-2)Man(a1-3)Man
# Method in brief: as §1
# [5] = target: Man(a1-2)Man(a1-3)[Man(a1-2)Man(a1-6)]Man
# Method in brief: as §1
# [6] = target: Man(a1-2)Man(a1-3)[Man(a1-3)[Man(a1-6)]Man(a1-6)]Man(b1-4)GlcNAc(b1-4)GlcNAc
# Method in brief: as §1
# [7] = target: Man(a1-2)Man(a1-3)[Man(a1-6)]Man(a1-6)[Man(a1-2)Man(a1-3)]Man(b1-4)GlcNAc(b1-4)GlcNAc
# Method in brief: as §1
# Man(a1-3)[Man(a1-6)]Man = target: Man(a1-3)[Man(a1-6)]Man
# Method in brief: as §1
# [8] = target: Man(a1-3)[Man(a1-6)]Man(a1-6)[Man(a1-3)]Man(b1-4)GlcNAc(b1-4)GlcNAc
# Method in brief: as §1
# [9] = target: Man(a1-3)[Man(a1-6)]Man(b1-4)GlcNAc(b1-4)GlcNAc
# Method in brief: as §1
# Man(b1-4)GlcNAc = target: Man(b1-4)GlcNAc
# Method in brief: as §1
# Neu5Ac(a2-3)Gal = target: Neu5Ac(a2-3)Gal
# Method in brief: as §1
# [10] = target: Neu5Ac(a2-3)Gal(b1-3)GalNAc
# Method in brief: as §1
# [11] = target: Neu5Ac(a2-3)Gal(b1-3)GalNAc(b1-3)Gal(a1-4)Gal(b1-4)Glc
# Method in brief: as §1
# [12] = target: Neu5Ac(a2-3)Gal(b1-3)GalNAc(b1-4)[Neu5Ac(a2-3)]Gal(b1-4)Glc
# Method in brief: as §1
# [13] = target: Neu5Ac(a2-3)Gal(b1-3)GalNAc6S
# Method in brief: as §1
# [14] = target: Neu5Ac(a2-3)Gal(b1-3)GlcNAc
# Method in brief: as §1
# [15] = target: Neu5Ac(a2-3)Gal(b1-3)GlcNAc(b1-3)Gal(b1-4)GlcNAc
# Method in brief: as §1
# [16] = target: Neu5Ac(a2-3)Gal(b1-3)GlcNAc6S
# Method in brief: as §1
# [17] = target: Neu5Ac(a2-3)Gal(b1-3)[Fuc(a1-4)]GlcNAc
# Method in brief: as §1
# [18] = target: Neu5Ac(a2-3)Gal(b1-3)[Fuc(a1-4)]GlcNAc(b1-3)Gal(b1-4)[Fuc(a1-3)]GlcNAc
# Method in brief: as §1
# [19] = target: Neu5Ac(a2-3)Gal(b1-3)[Neu5Ac(a2-3)Gal(b1-4)]GlcNAc
# Method in brief: as §1
# [20] = target: Neu5Ac(a2-3)Gal(b1-3)[Neu5Ac(a2-6)]GalNAc
# Method in brief: as §1
# Neu5Ac(a2-3)Gal(b1-4)Glc = target: Neu5Ac(a2-3)Gal(b1-4)Glc
# Method in brief: as §1
# [21] = target: Neu5Ac(a2-3)Gal(b1-4)GlcNAc
# Method in brief: as §1
# [22] = target: Neu5Ac(a2-3)Gal(b1-4)GlcNAc(b1-3)Gal(b1-4)GlcNAc
# Method in brief: as §1
# [23] = target: Neu5Ac(a2-3)Gal(b1-4)GlcNAc(b1-3)Gal(b1-4)GlcNAc(b1-3)Gal(b1-4)GlcNAc
# Method in brief: as §1
# [24] = target: Neu5Ac(a2-3)Gal(b1-4)GlcNAc(b1-3)Gal(b1-4)[Fuc(a1-3)]GlcNAc
# Method in brief: as §1
# [25] = target: Neu5Ac(a2-3)Gal(b1-4)GlcNAc6S
# Method in brief: as §1
# [26] = target: Neu5Ac(a2-3)Gal(b1-4)[Fuc(a1-3)]GlcNAc
# Method in brief: as §1
binder,measurement,setting,value
B1,glycan array binding signal (z-score),Kdn(a2-3)Gal(b1-4)GlcNAc,-0.131
same,glycan array binding signal (z-score),[1],-0.141
same,glycan array binding signal (z-score),[2],-0.225
same,glycan array binding signal (z-score),[3],-0.066
same,glycan array binding signal (z-score),[4],-0.184
same,glycan array binding signal (z-score),Man(a1-2)Man(a1-3)Man,-0.075
same,glycan array binding signal (z-score),[5],-0.203
same,glycan array binding signal (z-score),[6],-0.018
same,glycan array binding signal (z-score),[7],-0.112
same,glycan array binding signal (z-score),Man(a1-3)[Man(a1-6)]Man,-0.131
same,glycan array binding signal (z-score),[8],0.012
same,glycan array binding signal (z-score),[9],0.004
same,glycan array binding signal (z-score),Man(b1-4)GlcNAc,-0.205
same,glycan array binding signal (z-score),Neu5Ac(a2-3)Gal,-0.211
same,glycan array binding signal (z-score),[10],-0.098
same,glycan array binding signal (z-score),[11],-0.209
same,glycan array binding signal (z-score),[12],-0.147
same,glycan array binding signal (z-score),[13],-0.234
same,glycan array binding signal (z-score),[14],-0.161
same,glycan array binding signal (z-score),[15],-0.162
same,glycan array binding signal (z-score),[16],-0.16
same,glycan array binding signal (z-score),[17],-0.208
same,glycan array binding signal (z-score),[18],-0.077
same,glycan array binding signal (z-score),[19],-0.218
same,glycan array binding signal (z-score),[20],-0.112
same,glycan array binding signal (z-score),Neu5Ac(a2-3)Gal(b1-4)Glc,-0.221
same,glycan array binding signal (z-score),[21],-0.245
same,glycan array binding signal (z-score),[22],-0.222
same,glycan array binding signal (z-score),[23],-0.186
same,glycan array binding signal (z-score),[24],-0.031
same,glycan array binding signal (z-score),[25],0.04
same,glycan array binding signal (z-score),[26],-0.231
